# Reference: the supplement of paper PMC8728848
# The list shows a part of the results.
# B1: CC1G-11630 (Coprinopsis cinerea), A8P462 (protein)
# chain: MTTEAKIKLKAVVYWELVFDYDNSSNTGEITQSYTVKISQTSTRSTFASEVSTTTIDTLTKNNQEVDVGASYGAISANVSASWEHSEEVNNMLEKTTQTSTEDTYTVETEETRSYTIGPGGMLSLFQKHFSGPGMHVAFDVFTTDLELAKERTEIDIDVDVEAIRFVREIRVVYTDIMSEAPGDHVREINGKNPDINYGFNGKFVWLVPEQTRKTAQALTNVEFVSQAESDDRYWDLAAGAGGSNRYLIPVYDTNNKDKIYELALWRSDSYITHDKVKAAGWSGTTGDINSGRGGTYLNLVWKTRHAY
# Experiments:
# Experiment in all cases: glycan array binding signal (z-score within array); higher = stronger binding
# Conditions in all cases: glycan notation: IUPAC condensed, linker removed
# GlcNAc(b1-3)GalNAc = target: GlcNAc(b1-3)GalNAc
# Summary of the method: (§1)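 Glycan array binding is given as a within-array Z-score, which can be read as non-binding when negative. The arrays, 3228 of them, came from the Consortium for Functional Glycomics database and were retained only where the protein sequence was available. Z-scores were averaged across arrays of the same protein sequence at different concentrations or buffers and across linkers.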
# GlcNAc(b1-3)Man = target: GlcNAc(b1-3)Man
# Summary of the method: as §1
# [1] = target: GlcNAc(b1-3)[GlcNAc(b1-4)][GlcNAc(b1-6)]GlcNAc
# Summary of the method: as §1
# [2] = target: GlcNAc(b1-3)[GlcNAc(b1-6)]Gal(b1-4)GlcNAc
# Summary of the method: as §1
# [3] = target: GlcNAc(b1-3)[GlcNAc(b1-6)]GalNAc
# Summary of the method: as §1
# [4] = target: GlcNAc(b1-4)Gal(b1-4)GlcNAc
# Summary of the method: as §1
# GlcNAc(b1-4)GlcNAc = target: GlcNAc(b1-4)GlcNAc
# Summary of the method: as §1
# [5] = target: GlcNAc(b1-4)GlcNAc(b1-4)GlcNAc
# Summary of the method: as §1
# [6] = target: GlcNAc(b1-4)GlcNAc(b1-4)GlcNAc(b1-4)GlcNAc(b1-4)GlcNAc
# Summary of the method: as §1
# [7] = target: GlcNAc(b1-4)GlcNAc(b1-4)GlcNAc(b1-4)GlcNAc(b1-4)GlcNAc(b1-4)GlcNAc
# Summary of the method: as §1
# [8] = target: GlcNAc(b1-4)[GlcNAc(b1-6)]GalNAc
# Summary of the method: as §1
# [9] = target: GlcNAc(b1-6)Gal(b1-4)GlcNAc
# Summary of the method: as §1
# GlcNAc(b1-6)GalNAc = target: GlcNAc(b1-6)GalNAc
# Summary of the method: as §1
# [10] = target: GlcNAc6S(b1-3)Gal(b1-4)GlcNAc
# Summary of the method: as §1
# Kdn(a2-3)Gal(b1-3)GalNAc = target: Kdn(a2-3)Gal(b1-3)GalNAc
# Summary of the method: as §1
# Kdn(a2-3)Gal(b1-3)GlcNAc = target: Kdn(a2-3)Gal(b1-3)GlcNAc
# Summary of the method: as §1
# Kdn(a2-3)Gal(b1-4)Glc = target: Kdn(a2-3)Gal(b1-4)Glc
# Summary of the method: as §1
# Kdn(a2-3)Gal(b1-4)GlcNAc = target: Kdn(a2-3)Gal(b1-4)GlcNAc
# Summary of the method: as §1
# [11] = target: Kdn(a2-3)Gal(b1-4)[Fuc(a1-3)]GlcNAc
# Summary of the method: as §1
# Kdn(a2-6)Gal(b1-4)GlcNAc = target: Kdn(a2-6)Gal(b1-4)GlcNAc
# Summary of the method: as §1
# [12] = target: Man(a1-2)Man(a1-2)Man(a1-3)Man
# Summary of the method: as §1
# [13] = target: Man(a1-2)Man(a1-2)Man(a1-6)[Man(a1-3)]Man
# Summary of the method: as §1
# Man(a1-2)Man(a1-3)Man = target: Man(a1-2)Man(a1-3)Man
# Summary of the method: as §1
# [14] = target: Man(a1-2)Man(a1-3)[Man(a1-2)Man(a1-6)]Man
# Summary of the method: as §1
# [15] = target: Man(a1-2)Man(a1-3)[Man(a1-2)Man(a1-6)]Man(a1-6)[Man(a1-2)Man(a1-2)Man(a1-3)]Man
# Summary of the method: as §1
# [16] = target: Man(a1-2)Man(a1-3)[Man(a1-2)Man(a1-6)]Man(a1-6)[Man(a1-2)Man(a1-2)Man(a1-3)]Man(b1-4)GlcNAc(b1-4)GlcNAc
# Summary of the method: as §1
# [17] = target: Man(a1-2)Man(a1-3)[Man(a1-6)]Man(a1-6)[Man(a1-2)Man(a1-3)]Man(b1-4)GlcNAc(b1-4)GlcNAc
# Summary of the method: as §1
# [18] = target: Man(a1-2)Man(a1-6)[Man(a1-3)]Man(a1-6)[Man(a1-2)Man(a1-2)Man(a1-3)]Man
# Summary of the method: as §1
# [19] = target: Man(a1-2)Man(a1-6)[Man(a1-3)]Man(a1-6)[Man(a1-2)Man(a1-2)Man(a1-3)]Man(b1-4)GlcNAc(b1-4)GlcNAc
# Summary of the method: as §1
# Man(a1-3)[Man(a1-6)]Man = target: Man(a1-3)[Man(a1-6)]Man
# Summary of the method: as §1
# [20] = target: Man(a1-3)[Man(a1-6)]Man(a1-6)[Man(a1-2)Man(a1-3)]Man(b1-4)GlcNAc(b1-4)GlcNAc
# Summary of the method: as §1
# [21] = target: Man(a1-3)[Man(a1-6)]Man(a1-6)[Man(a1-3)]Man
# Summary of the method: as §1
# [22] = target: Man(a1-3)[Man(a1-6)]Man(a1-6)[Man(a1-3)]Man(b1-4)GlcNAc(b1-4)GlcNAc
# Summary of the method: as §1
# [23] = target: Man(a1-3)[Man(a1-6)]Man(b1-4)GlcNAc(b1-4)GlcNAc
# Summary of the method: as §1
# [24] = target: Man(a1-3)[Man(a1-6)]Man(b1-4)GlcNAc(b1-4)[Fuc(a1-6)]GlcNAc
# Summary of the method: as §1
# Man(a1-6)Man = target: Man(a1-6)Man
# Summary of the method: as §1
# Man(b1-4)GlcNAc = target: Man(b1-4)GlcNAc
# Summary of the method: as §1
# MurNAc(b1-4)GlcNAc = target: MurNAc(b1-4)GlcNAc
# Summary of the method: as §1
binder,measurement,setting,value
B1,glycan array binding signal (z-score),GlcNAc(b1-3)GalNAc,-0.57
same,glycan array binding signal (z-score),GlcNAc(b1-3)Man,0.017
same,glycan array binding signal (z-score),[1],-0.287
same,glycan array binding signal (z-score),[2],-0.82
same,glycan array binding signal (z-score),[3],-0.389
same,glycan array binding signal (z-score),[4],-0.152
same,glycan array binding signal (z-score),GlcNAc(b1-4)GlcNAc,-0.351
same,glycan array binding signal (z-score),[5],-0.313
same,glycan array binding signal (z-score),[6],0.171
same,glycan array binding signal (z-score),[7],0.74
same,glycan array binding signal (z-score),[8],-0.238
same,glycan array binding signal (z-score),[9],-0.115
same,glycan array binding signal (z-score),GlcNAc(b1-6)GalNAc,-0.182
same,glycan array binding signal (z-score),[10],-0.193
same,glycan array binding signal (z-score),Kdn(a2-3)Gal(b1-3)GalNAc,0.243
same,glycan array binding signal (z-score),Kdn(a2-3)Gal(b1-3)GlcNAc,-0.246
same,glycan array binding signal (z-score),Kdn(a2-3)Gal(b1-4)Glc,-0.287
same,glycan array binding signal (z-score),Kdn(a2-3)Gal(b1-4)GlcNAc,0.379
same,glycan array binding signal (z-score),[11],-0.32
same,glycan array binding signal (z-score),Kdn(a2-6)Gal(b1-4)GlcNAc,-0.403
same,glycan array binding signal (z-score),[12],-0.039
same,glycan array binding signal (z-score),[13],-0.059
same,glycan array binding signal (z-score),Man(a1-2)Man(a1-3)Man,-0.436
same,glycan array binding signal (z-score),[14],-0.55
same,glycan array binding signal (z-score),[15],-0.354
same,glycan array binding signal (z-score),[16],0.434
same,glycan array binding signal (z-score),[17],-0.164
same,glycan array binding signal (z-score),[18],-0.631
same,glycan array binding signal (z-score),[19],0.152
same,glycan array binding signal (z-score),Man(a1-3)[Man(a1-6)]Man,-0.172
same,glycan array binding signal (z-score),[20],0.059
same,glycan array binding signal (z-score),[21],0.492
same,glycan array binding signal (z-score),[22],-0.128
same,glycan array binding signal (z-score),[23],-0.422
same,glycan array binding signal (z-score),[24],0.119
same,glycan array binding signal (z-score),Man(a1-6)Man,0.621
same,glycan array binding signal (z-score),Man(b1-4)GlcNAc,-0.28
same,glycan array binding signal (z-score),MurNAc(b1-4)GlcNAc,-0.226
